{"source": "the antibiotic and cytotoxicity screens of Wong et al. (2023)", "note": "The other results are listed elsewhere or left out."}
{"tested_on": "HSkMC (human skeletal muscle cells)", "test": "cytotoxicity call (relative viability < 0.9)", "conditions": "10 µM"}
{"smiles": "CN1CCN(C2=Nc3ccccc3Oc3ccc(Cl)cc32)CC1.O=C(O)CCC(=O)O", "cytotoxicity call": "inactive"}
{"smiles": "Nc1cc(=O)nc2sc(C3CC3)nn12", "cytotoxicity call": "inactive"}
{"smiles": "CCC(=O)NO", "cytotoxicity call": "inactive"}
{"smiles": "C[C@H]1CN([C@@H](C)CO)C(=O)c2cc(C#CCN(C)C)cnc2O[C@@H]1CN(C)S(C)(=O)=O", "cytotoxicity call": "inactive"}
{"smiles": "Cc1noc(C)c1S(=O)(=O)Nc1ccc2c(c1)C(=O)N([C@H](C)CO)C[C@@H](C)[C@@H](CN(C)C(=O)NC(C)C)O2", "cytotoxicity call": "inactive"}
{"smiles": "C[C@H](CO)N1C[C@H](C)[C@@H](CN(C)S(=O)(=O)c2cn(C)cn2)Oc2ccc(NS(=O)(=O)c3ccccc3)cc2CC1=O", "cytotoxicity call": "inactive"}
{"smiles": "C[C@@H]1CN([C@@H](C)CO)C(=O)c2cccc(NS(=O)(=O)c3cn(C)cn3)c2O[C@@H]1CN(C)CC1CC1", "cytotoxicity call": "inactive"}
{"smiles": "C[C@@H]1CN([C@H](C)CO)S(=O)(=O)c2ccc(C#Cc3ccccc3)cc2O[C@@H]1CN(C)S(C)(=O)=O", "cytotoxicity call": "inactive"}
{"smiles": "CN1C(=O)c2cc(NC(=O)Cc3cccs3)ccc2OC[C@H]2O[C@H](CC(=O)NCCc3ccncc3)CC[C@H]21", "cytotoxicity call": "inactive"}
{"smiles": "CS(=O)(=O)N1C[C@@H](O)COC[C@H]2O[C@@H](CC(=O)NCc3ccccc3)CC[C@@H]21", "cytotoxicity call": "inactive"}
{"smiles": "C[C@@H]1CN([C@H](C)CO)C(=O)Cc2cc(NC(=O)CCN3CCOCC3)ccc2O[C@@H]1CN(C)C(=O)NC1CCCCC1", "cytotoxicity call": "inactive"}
{"smiles": "C[C@H]1CN([C@@H](C)CO)S(=O)(=O)c2ccc(C#Cc3ccc(F)cc3)cc2O[C@H]1CN(C)C(=O)c1ccccn1", "cytotoxicity call": "inactive"}
{"smiles": "COc1ccc(S(=O)(=O)Nc2ccc3c(c2)C(=O)N([C@@H](C)CO)C[C@H](C)[C@@H](CN(C)C(=O)Nc2ccc4c(c2)OCO4)OCCCC[C@H](C)O3)cc1", "cytotoxicity call": "inactive"}
{"smiles": "COc1ccc(S(=O)(=O)N[C@@H]2CC[C@H](CC(=O)N3CCC(Cc4ccccc4)CC3)O[C@@H]2CO)cc1", "cytotoxicity call": "inactive"}
{"smiles": "COc1ccc(S(=O)(=O)Nc2ccc3c(c2)C(=O)N([C@H](C)CO)C[C@@H](C)[C@@H](CN(C)Cc2ccccc2)OCCCC[C@@H](C)O3)cc1", "cytotoxicity call": "inactive"}
{"smiles": "CCS(=O)(=O)N1C[C@]2(CN(C2)C(=O)Nc2c(noc2C)C)c2c(n(c3cc(ccc23)OC)C)[C@@H]1CO", "cytotoxicity call": "inactive"}
{"smiles": "COc1cc2c(cc1OC)CN(C(=O)[C@H]1[C@@H]3C(=O)O[C@@H](c4ccccc4)[C@@H](c4ccccc4)N3[C@@H](c3ccc(O)cc3)[C@]13C(=O)Nc1ccccc13)CC2", "cytotoxicity call": "inactive"}
{"smiles": "O=C(C[C@@H]1CC[C@H]2[C@@H](COC[C@@H](O)CN2Cc2ccccc2F)O1)N[C@H]1CCN(Cc2ccccc2)C1", "cytotoxicity call": "inactive"}
{"smiles": "Cc1ccc(S(=O)(=O)Nc2ccc3c(c2)C(=O)N([C@H](C)CO)C[C@@H](C)[C@@H](CN(C)S(=O)(=O)c2cn(C)cn2)O3)cc1", "cytotoxicity call": "inactive"}
{"smiles": "C[C@H](CO)N1C[C@H](C)[C@@H](CN(C)Cc2ccc(Cl)c(Cl)c2)Oc2ccc(NC(=O)C3CCCCC3)cc2CC1=O", "cytotoxicity call": "inactive"}
{"smiles": "C[C@@H]1CCCCO[C@H](CN(C)Cc2ccccc2)[C@H](C)CN([C@@H](C)CO)C(=O)c2cc(NC(=O)NC3CCCCC3)ccc2O1", "cytotoxicity call": "inactive"}
{"smiles": "Cc1ccc(S(=O)(=O)N(C)C[C@H]2OCCCC[C@H](C)Oc3ccc(NC(=O)Nc4cccc5ccccc45)cc3C(=O)N([C@@H](C)CO)C[C@H]2C)cc1", "cytotoxicity call": "inactive"}
{"smiles": "Cc1noc(C)c1NC(=O)N(C)C[C@@H]1Oc2c(NC(=O)C3CC3)cccc2C(=O)N([C@H](C)CO)C[C@@H]1C", "cytotoxicity call": "inactive"}
{"smiles": "C[C@@H]1CN([C@H](C)CO)C(=O)c2cccc(NS(C)(=O)=O)c2O[C@@H]1CN(C)Cc1ccc(C(F)(F)F)cc1", "cytotoxicity call": "inactive"}
{"smiles": "COC(=O)[C@@H]1CC(=O)N(C(C)C)C1", "cytotoxicity call": "inactive"}
{"smiles": "CN(C)C(=O)c1cccc(-c2cccc(-c3nc(C(=O)NC4CCCCC4)cc4c3[C@@H](CCO)N([S@](=O)C(C)(C)C)C4)c2)c1", "cytotoxicity call": "inactive"}
{"smiles": "C[C@H](CO)N1C[C@H](C)[C@H](CN(C)C(=O)Nc2ccc(F)cc2)Oc2ccc(NS(C)(=O)=O)cc2CC1=O", "cytotoxicity call": "inactive"}
{"smiles": "COc1ccc(S(=O)(=O)Nc2ccc3c(c2)CC(=O)N([C@@H](C)CO)C[C@H](C)[C@H](CN(C)S(=O)(=O)c2ccc(F)cc2)O3)cc1", "cytotoxicity call": "inactive"}
{"smiles": "C[C@@H]1CN([C@@H](C)CO)C(=O)CCCn2cc(nn2)CO[C@H]1CN(C)C(=O)c1cc(-c2ccccc2)on1", "cytotoxicity call": "inactive"}
{"smiles": "C[C@@H]1CN([C@H](C)CO)S(=O)(=O)c2ccc(C#CC3CC3)cc2O[C@@H]1CN(C)C(=O)Cc1ccncc1", "cytotoxicity call": "inactive"}
{"smiles": "COCCN1C[C@H]2CN(Cc3cnn(C)c3)C[C@H]2C1=O", "cytotoxicity call": "inactive"}
{"smiles": "COc1ccc(CN(C)C[C@@H]2OCCCC[C@H](C)Oc3ccc(NC(=O)Nc4ccc5c(c4)OCO5)cc3C(=O)N([C@@H](C)CO)C[C@@H]2C)cc1", "cytotoxicity call": "inactive"}
{"smiles": "C[C@@H]1CCCCO[C@@H](CN(C)C(=O)Nc2ccccc2)[C@H](C)CN([C@H](C)CO)C(=O)c2cc(NC(=O)Nc3ccc(C(F)(F)F)cc3)ccc2O1", "cytotoxicity call": "inactive"}
{"smiles": "CCOP(=O)(CC(=O)O[C@H]1[C@H](OC(=O)Nc2ccccc2-c2ccccc2)[C@H](OC(=O)Nc2ccccc2-c2ccccc2)[C@@H](OC)O[C@@H]1COC(=O)NCCCCCC(=O)NO)OCC", "cytotoxicity call": "inactive"}
{"smiles": "C[C@H](CO)N1C[C@H](C)[C@@H](CN(C)C(=O)C2CCCCC2)OCCCC[C@H](C)Oc2ccc(NC(=O)C3CCCCC3)cc2C1=O", "cytotoxicity call": "inactive"}
{"smiles": "C[C@@H]1CN([C@@H](C)CO)C(=O)c2c(c3ccccc3n2C)-c2ccccc2CO[C@H]1CN(C)C(=O)NC1CCCCC1", "cytotoxicity call": "inactive"}
{"smiles": "O=C(NCc1ccc(Oc2ccccc2)cc1)c1nc(-c2cc(Br)c(O)c(Br)c2)no1", "cytotoxicity call": "inactive"}
{"smiles": "Cc1ncc([N+](=O)[O-])n1C", "cytotoxicity call": "inactive"}
{"smiles": "Cc1noc(C)c1NC(=O)Nc1ccc2c(c1)CC(=O)N([C@H](C)CO)C[C@@H](C)[C@@H](CN(C)S(C)(=O)=O)O2", "cytotoxicity call": "inactive"}
{"smiles": "C[C@@H]1CCCCO[C@@H](CN(C)S(=O)(=O)c2cccs2)[C@H](C)CN([C@H](C)CO)C(=O)c2cc(NC(=O)NC3CCCCC3)ccc2O1", "cytotoxicity call": "inactive"}
